The source of these data is the supplement of paper PMC10037445.

Each structure is given as a SMILES string. The full ranking holds about 2,900 compounds; the median of “NF-kB SEAP reporter activity, fold change vs agonist alone” is about 0.99, and the highest 2% start at about 2.6. The list shows a part of the results.

The subject of test [1] is RAW-Dual. Put plainly: NF-kB SEAP reporter activity, fold change vs agonist alone; cytotoxicity flag (confluency mask): not cytotoxic; higher = enhanced NF-kB activity. In a few lines:
(§1)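 Library stock was pin-tooled at 50 nL into 384-well plates of RAW-Dual macrophages (50,000 cells/well, DMEM), followed 1 h later by a PRR agonist, and the cells were kept at 37 °C, 5% CO2. Supernatant collected after 20 hours was read for IRF by QuantiLuc luminescence and for NF-κB by QuantiBlue absorbance at 620 nm. Reporter activity is fold change over agonist-alone wells, and a well counted as cytotoxic when its IncuCyte confluency was below 70% of agonist controls in both mask sets.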

In test [2] the test system is RAW-Dual. Put plainly: NF-kB SEAP reporter activity, fold change vs agonist alone; higher = enhanced NF-kB activity. In a few lines:
as §1

Test [3] relates to RAW-Dual. Put plainly: NF-kB SEAP reporter activity, fold change vs agonist alone; cytotoxicity flag (confluency mask): cytotoxic (confluency <70% of control); higher = enhanced NF-kB activity. Summed up: as §1
Where [4] appears, read: agonist: ODN 1826 (TLR9) 0.5 ug/mL.
[5] abbreviates: agonist: Pam2CSK4 (TLR2/6) 0.1 ug/mL.
The mark [6] stands for this setting: agonist: Pam3CSK4 (TLR2/1) 0.1 ug/mL.
[7] abbreviates: library stock concentration (final ~1000-fold dilution): 10 mM, cytotoxicity flag (confluency mask): not cytotoxic, agonist: Imiquimod (TLR7) […].
Setting [8] is: library stock concentration (final ~1000-fold dilution): 10 mM, cytotoxicity flag (confluency mask): not cytotoxic, agonist: MPLA (TLR4) […].

Turning to `Cc1c(Cl)cccc1Nc1ccccc1C(=O)O` (library stock concentration (final ~1000-fold dilution): 10 mM), the “NF-kB SEAP reporter activity” value in the test on RAW-Dual [1] (agonist: LPS (TLR4) 0.1 ug/mL) stood at 1.06; with RAW-Dual [1] (setting [4]) it was 0.863; in the test with RAW-Dual [1] (setting [5]), 0.677; in the test with RAW-Dual [1] (setting [6]), 0.869.

On to `Cc1c(Cl)cccc1Nc1ccccc1C(=O)O`, for which the “NF-kB SEAP reporter activity” value stood at 0.738 with RAW-Dual [2] (setting [7]) and 0.984 with RAW-Dual [2] (setting [8]).

For the compound `Cc1ccc(S(=O)(=O)C=CC#N)cc1` (library stock concentration (final ~1000-fold dilution): 10 mM), the “NF-kB SEAP reporter activity” value in the test on RAW-Dual [3] (agonist: LPS (TLR4) 0.1 ug/mL) was found to be 0.282; in the test on RAW-Dual [3] (setting [4]), 0.217; in the test on RAW-Dual [3] (setting [5]), 0.0769; in the test on RAW-Dual [3] (setting [6]) it was 0.179.

Regarding `Cc1ccc(S(=O)(=O)C=CC#N)cc1`, the “NF-kB SEAP reporter activity” value with RAW-Dual [2] (library stock concentration (final ~1000-fold dilution): 10 mM, cytotoxicity flag (confluency mask): cytotoxic (confluency <70% of control), agonist: Imiquimod (TLR7) […]) is 0.215; in the test on RAW-Dual [2] (library stock concentration (final ~1000-fold dilution): 10 mM, cytotoxicity flag (confluency mask): cytotoxic (confluency <70% of control), agonist: MPLA (TLR4) […]) it was 0.281.

Take `CN1CCC(NC(=O)Nc2ccc(C#N)cc2)CC1c1nc2ccccc2[nH]1` (stereo unspecified): the “NF-kB SEAP reporter activity” value in the test on RAW-Dual [2] (setting [7]) stood at 0.96; in the test with RAW-Dual [2] (setting [8]), 1.05.

As to `CN1CCC(NC(=O)Nc2ccc(C#N)cc2)CC1c1nc2ccccc2[nH]1` (stereo unspecified) (library stock concentration (final ~1000-fold dilution): 10 mM), the “NF-kB SEAP reporter activity” value in the test with RAW-Dual [1] (agonist: LPS (TLR4) 0.1 ug/mL) was found to be 0.952; in the test on RAW-Dual [1] (setting [4]), 1.01; in the test with RAW-Dual [1] (setting [5]) it was 1.05; in the test on RAW-Dual [1] (setting [6]), 0.998.

For the compound `Cl.O=S(=O)(c1cccc2cnccc12)N1CCCNCC1` (library stock concentration (final ~1000-fold dilution): 10 mM), the “NF-kB SEAP reporter activity” value with RAW-Dual [1] (agonist: LPS (TLR4) 0.1 ug/mL) was found to be 0.728; in the test on RAW-Dual [1] (setting [4]), 0.9; with RAW-Dual [1] (setting [5]) it was 1.31; with RAW-Dual [1] (setting [6]) it was 1.29.

On to `Cl.O=S(=O)(c1cccc2cnccc12)N1CCCNCC1`, for which the “NF-kB SEAP reporter activity” value came to 0.836 in the test with RAW-Dual [2] (setting [7]) and 0.975 in the test on RAW-Dual [2] (setting [8]).

Regarding `O=C1c2ccccc2C(=O)C1c1ccccc1` (library stock concentration (final ~1000-fold dilution): 10 mM), the “NF-kB SEAP reporter activity” value in the test on RAW-Dual [1] (agonist: LPS (TLR4) 0.1 ug/mL) was 1.21; with RAW-Dual [1] (setting [4]), 1.05; in the test with RAW-Dual [1] (setting [5]), 0.866; in the test on RAW-Dual [1] (setting [6]) it was 1.1.

On to `O=C1c2ccccc2C(=O)C1c1ccccc1`, for which the “NF-kB SEAP reporter activity” value with RAW-Dual [2] (setting [7]) is 1.02; in the test on RAW-Dual [2] (setting [8]), 1.23.

On to `O=C(c1cc(Cc2n[nH]c(=O)c3ccccc23)ccc1F)N1CCN(C(=O)C2CC2)CC1` (library stock concentration (final ~1000-fold dilution): 10 mM), for which the “NF-kB SEAP reporter activity” value with RAW-Dual [1] (agonist: LPS (TLR4) 0.1 ug/mL) was 1.66; in the test with RAW-Dual [1] (setting [4]), 1.15; in the test on RAW-Dual [1] (setting [5]), 1.3; in the test with RAW-Dual [1] (setting [6]) it was 1.4.

For `O=C(c1cc(Cc2n[nH]c(=O)c3ccccc23)ccc1F)N1CCN(C(=O)C2CC2)CC1`, the results for the “NF-kB SEAP reporter activity” value in the test on RAW-Dual [2] (setting [7]) and in the test with RAW-Dual [2] (setting [8]) were 1.03 and 1.33, respectively.

For `CCN(CC)CCNC(=O)c1cc(Cl)c(N)cc1OC.Cl` (library stock concentration (final ~1000-fold dilution): 10 mM), the “NF-kB SEAP reporter activity” value was 0.887 in the test on RAW-Dual [1] (agonist: LPS (TLR4) 0.1 ug/mL), 0.994 in the test on RAW-Dual [1] (setting [4]), 0.978 with RAW-Dual [1] (setting [5]) and 0.954 in the test with RAW-Dual [1] (setting [6]).

As to `CCN(CC)CCNC(=O)c1cc(Cl)c(N)cc1OC.Cl`, the “NF-kB SEAP reporter activity” value is 0.986 with RAW-Dual [2] (setting [7]) and 1.02 in the test on RAW-Dual [2] (setting [8]).

As for `Clc1ccc2c(c1)C(N1CCNCC1)=Nc1ccccc1O2` (library stock concentration (final ~1000-fold dilution): 2 mM), the “NF-kB SEAP reporter activity” value is 1.19 in the test on RAW-Dual [1] (agonist: LPS (TLR4) 0.1 ug/mL), 0.843 in the test on RAW-Dual [1] (setting [4]), 0.83 in the test with RAW-Dual [1] (setting [5]) and 0.784 in the test on RAW-Dual [1] (setting [6]).

For `Clc1ccc2c(c1)C(N1CCNCC1)=Nc1ccccc1O2`, the “NF-kB SEAP reporter activity” value was determined as 0.716 in the test on RAW-Dual [2] (library stock concentration (final ~1000-fold dilution): 2 mM, cytotoxicity flag (confluency mask): not cytotoxic, agonist: Imiquimod (TLR7) […]) and 1.15 in the test with RAW-Dual [2] (library stock concentration (final ~1000-fold dilution): 2 mM, cytotoxicity flag (confluency mask): not cytotoxic, agonist: MPLA (TLR4) […]).

Turning to `O=C(O)CCc1nc(-c2ccccc2)c(-c2ccccc2)o1`, the “NF-kB SEAP reporter activity” value amounted to 1.16 in the test with RAW-Dual [2] (setting [7]) and 1.01 in the test with RAW-Dual [2] (setting [8]).

On to `O=C(O)CCc1nc(-c2ccccc2)c(-c2ccccc2)o1` (library stock concentration (final ~1000-fold dilution): 10 mM), for which the “NF-kB SEAP reporter activity” value in the test with RAW-Dual [1] (agonist: LPS (TLR4) 0.1 ug/mL) amounted to 1.07; with RAW-Dual [1] (setting [4]), 1.02; in the test on RAW-Dual [1] (setting [5]) it was 1.1; with RAW-Dual [1] (setting [6]), 1.11.

As for `CC(=CC(=O)OCCCCCCCCC(=O)O)CC1OCC(CC2OC2C(C)C(C)O)C(O)C1O` (stereo unspecified) (library stock concentration (final ~1000-fold dilution): 10 mM), the “NF-kB SEAP reporter activity” value with RAW-Dual [1] (agonist: LPS (TLR4) 0.1 ug/mL) turned out to be 1.41; in the test with RAW-Dual [1] (setting [4]), 1.05; in the test on RAW-Dual [1] (setting [5]), 1.23; in the test on RAW-Dual [1] (setting [6]), 1.14.

Regarding `CC(=CC(=O)OCCCCCCCCC(=O)O)CC1OCC(CC2OC2C(C)C(C)O)C(O)C1O` (stereo unspecified), the “NF-kB SEAP reporter activity” value with RAW-Dual [2] (setting [8]) was 1.07.

In the case of `N#Cc1cnc(Nc2cc(NCC3CNCCO3)c(C(F)(F)F)cn2)cn1` (stereo unspecified) (library stock concentration (final ~1000-fold dilution): 10 mM), the “NF-kB SEAP reporter activity” value came out at 1.37 in the test with RAW-Dual [1] (agonist: LPS (TLR4) 0.1 ug/mL), 1.25 with RAW-Dual [1] (setting [4]), 1.34 in the test on RAW-Dual [1] (setting [5]) and 1.5 in the test with RAW-Dual [1] (setting [6]).

For the compound `N#Cc1cnc(Nc2cc(NCC3CNCCO3)c(C(F)(F)F)cn2)cn1` (stereo unspecified), the “NF-kB SEAP reporter activity” value with RAW-Dual [2] (setting [7]) is 1.66; with RAW-Dual [2] (setting [8]), 0.936.

Turning to `CC(C(=O)O)c1ccc(CC2CCCC2=O)cc1` (stereo unspecified), in the test with RAW-Dual [2] (setting [8]), the “NF-kB SEAP reporter activity” value was found to be 1.05.

As for `CC(C(=O)O)c1ccc(CC2CCCC2=O)cc1` (stereo unspecified) (library stock concentration (final ~1000-fold dilution): 10 mM), the “NF-kB SEAP reporter activity” value in the test on RAW-Dual [1] (agonist: LPS (TLR4) 0.1 ug/mL) was 1.06; in the test with RAW-Dual [1] (setting [4]), 1.03; in the test on RAW-Dual [1] (setting [5]), 1.13; in the test on RAW-Dual [1] (setting [6]) it was 1.26.

As to `CC1c2cccc(O)c2C(=O)C2=C(O)C3(O)C(=O)C(C(N)=O)=C(O)C(N(C)C)C3C(O)C21.CC1c2cccc(O)c2C(=O)C2=C(O)C3(O)C(=O)C(C(N)=O)=C(O)C(N(C)C)C3C(O)C21.CCO.Cl.Cl.O` (stereo unspecified) (library stock concentration (final ~1000-fold dilution): 10 mM), the “NF-kB SEAP reporter activity” value is 1.6 in the test on RAW-Dual [1] (agonist: LPS (TLR4) 0.1 ug/mL), 0.969 in the test on RAW-Dual [1] (setting [4]), 1.26 in the test on RAW-Dual [1] (setting [5]) and 0.938 in the test on RAW-Dual [1] (setting [6]).

`CC1c2cccc(O)c2C(=O)C2=C(O)C3(O)C(=O)C(C(N)=O)=C(O)C(N(C)C)C3C(O)C21.CC1c2cccc(O)c2C(=O)C2=C(O)C3(O)C(=O)C(C(N)=O)=C(O)C(N(C)C)C3C(O)C21.CCO.Cl.Cl.O` (stereo unspecified): the “NF-kB SEAP reporter activity” value came to 0.998 in the test with RAW-Dual [2] (setting [7]) and 1.13 with RAW-Dual [2] (setting [8]).
